This is one part of the list.
Each sequence was assayed on PfSIP2 AP2 domain 1 (GST-tagged) (assay: gcPBM binding intensity (ln(normalized median fluorescence intensity)); higher = stronger DNA binding).
Summary of the method: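 Using an Agilent 4 × 180k array, primer-extended double-stranded 36-bp intergenic genomic probes and negative controls were exposed for 1 h to GST-fused P. falciparum DNA-binding domains expressed in E. coli. Binding was carried out in 1× PBS with 1% milk, 0.2 mg/ml BSA, 0.5% salmon testes DNA and 0.03% Triton X-100, and protein was detected with Alexa488 anti-GST antibody and a 488 nm scan. Binding intensity is the highest Masliner-normalised natural-log median intensity across replicate spots of either probe orientation.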

Sequence	gcPBM binding intensity (ln)
ATATATATATATTATGTGCGCATATACCATTTTAAT [GTGCAC_site9575]	8.77
ATATAAATATTAATTACACACAAAAAAAAAAAAAAA [CACACA_site6671]	6.94
AATGGAAAAGGTAGTTGTACAACATGTTAAAATGGT [XGTACX_site1312]	7.63
ATATAAATAAACAACTTTGTTGGCCTTCCAAAATAT [CACACA_negctrl_site1181]	6.76
TTGAAGAATAAATATGCACACATGCATATATTTTTA [CACACA_site5840]	9.15
CTCAAAAAATTTCATAGTACTTTAAAATACTATAAT [XGTACX_site1939]	6.95
AATAAAAAAAAACGCACACACAAATATATTCCATTC [CACACA_site1224]	7.15
TTTTGTTCTAATATGGGAACATAAATATTAAATATA [CACACA_negctrl_site1787]	6.75
TATATATATAAATGAATGCACTTTAGAAAAAAGTAC	8.52
ATATATATTATAATAACACACATATATTATATTATA [CACACA_site406]	7.07
AATAAAATACAAAAATGTACAAATATAATATACATA [XGTACX_site279]	7.07
TAATAATATAAATATGCACACAAATTATTACCCAAA [CACACA_site8805]	9.17
ATAAAATAAAACAACACACACGAATGTATAAATATA [CACACA_site4643]	6.8
TAGATATATAGAATTACACACTTTTCTATAATATGA [CACACA_site6475]	6.74
TAATATAAAATGATAAATGAATGTGATCATTTTATA [CACACA_negctrl_site1034]	6.62
ACATACTCAAATAGCACACACATAAATAAAAATGTA [CACACA_site3864]	7.24
ATATATATTTAAAACGCATGCCTTGTTATATATATA [TGCATGCA_site624]	7.59
CATATATATTTTATATGTACATATATATTTTATATA [XGTACX_site8665]	7.03
ATTACAAAAATATATAAACACACAAATATAATATAT [CACACA_site8962]	7.04
ATAAAGATTTTCCAAGCATGCCACATAGTGAGATAC [TGCATGCA_site594]	7.13
ATCATAAAAGTATACACACATACATACATATGTACA [CACACA_site2641]	7.13
TTATATATTTTTACCATACACACATATAATAAATAT [CACACA_site3721]	7.29

Sequence	gcPBM binding intensity (ln)
TAAATATATATATATGTACACACTCCAATACATATA [CACACA_site8858]	7.4
TATATATATATTATATGTACATATTCCTATATATAC [XGTACX_site7071]	9.06
ACTTTATATTTTGAACGTACAAAAAAAAAATTATGT [XGTACX_site5588]	7.44
AACCATTAATTCTCTACACACTTTTATTTTATTTAG [CACACA_site1769]	6.88
GCACATATATACATACATACATACATACATATGTAT [TGCATGCA_negctrl_site95]	7.17
AAGTATGCATTATATACACACATACATTTATATATT [CACACA_site4242]	7.02
TTGGTTATACAACACATGCACACGTAAATAAATATT [CACACA_site3841]	7.48
ATTATGTTAAAAAGGCGTACATGTTATAAGGTCCTA [XGTACX_site344]	7.7
TATATATAAAGAGAAACATGCAAAATGTGAATATTC [TGCATGCA_site377]	6.88
TCCTTATAAATATATATATAATATATATATATATAT [CACACA_negctrl_site293]	8.56
TATATATATATTTATACACACATTAGTGTAGACATG [CACACA_site8964]	8.53
TTGTTCTAATATATTGCACACGTAAAAATATAGGTA [CACACA_site8195]	7.49
ATATAATATATATGGTGTACATTTTTTAGTGCTATT [XGTACX_site1662]	7.28
TAAAAGAATAAAAGTAGTACTTTTTTTTATATTAGA [XGTACX_site368]	7.14
AAAAAGTGACTCCTTACACACTTTACATAATTTAGT [CACACA_site4606]	6.92
TCTTTTTTTTTTTATTGTACAAGAAAAGGAAAAAAT [XGTACX_site3717]	7.46
ATATTTTTATATTAGTGTACTTATTATAATGTATAG [XGTACX_site8185]	7.31
ATAATATGTAATATTACACACAATTCATCATTTTTT [CACACA_site3159]	6.91
ATATACACCGTTGAATGTACATAAATAATATTAATA [XGTACX_site2893]	7.17
AGTACATTTTTTTTAATAGGAAAAAAAATATTTATT [TGCATGCA_negctrl_site575]	6.85
AAGTATTATTTTTATGCATGTGAAGTGCAAAATAAA [TGCATGCA_site198]	9.56
TTTTAAAGAAAATATTTTATCATTATTTTTTGTACT [CACACA_negctrl_site1648]	6.66
